Data as given in the RNAGym collection of RNA variant scans (doi:10.1093/nar/gkz1192).
The source gives no read counts; variants with many changes may rest on few reads.

B1: CPEB3 Ribozyme (parent)
chain: UAACAGGGGGCCACAGCAGAAGCGUUCACGUCGCAGCCCCUGUCAGAUUCUGGUGAAUCUGCGAAUUCUGCUGUAUAUCUC

Variants of: B1
Assay: self-cleavage, relative activity (ratio to wild type); higher = more cleavage; in vitro, sequencing
In short: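 Relative activity compares each variant's cleaved/total read fraction with that of the unmutated ribozyme. To get these fractions, barcoded CPEB3 ribozyme libraries from rounds of error-prone PCR were transcribed with T7 RNA polymerase for 5 hours at 37°C and then given 15 min of DNase I treatment before EDTA was added. The RNAs were reverse transcribed with template switching and sequenced on Illumina, and DNA sequencing linked barcodes to variants. A minimum of 5 reads applied, and three batches were averaged.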
G10C A20G G61U showed a self-cleavage of 0.09.
In the case of G10U A13G U51C U72C, the self-cleavage is reported as 0.14.
G10A A45U A56U gave a self-cleavage of 0.12.
For G10U C11A A35U A64G, the self-cleavage was 0.07.
For G10A U25C U49A U51A G70U, the self-cleavage was 0.16.
With G10A U43C A47U U74A U78A the self-cleavage was 0.05.
Variant G10C A35G C40G A47C has a self-cleavage of 0.12.
Variant G10A C11G C50A U80A has a self-cleavage of 0.41.
With G10C U43A U54C G63A U80A the self-cleavage was 0.07.
In the case of G10A U26C U31C A47G, the self-cleavage is reported as 0.06.
In the case of G10U A45G G52U, the self-cleavage is reported as 0.04.
For G10A U25C A64U, the self-cleavage was 0.14.
For G10U A20G A21U A28G A35U A77G, the self-cleavage was 0.07.
For G10U A47G U66C, the self-cleavage was 0.05.
Variant G10C C34U A64U has a self-cleavage of 0.05.
G10A G63U U80C gave a self-cleavage of 0.36.
Work on G10A G63A A64G U69C yielded a self-cleavage of 0.14.
For G10U A21G A28U A56G U66A U80C, the self-cleavage was 0.02.
In the case of G10C A15G G24C U26C A64G, the self-cleavage is reported as 0.18.
With G10A C29G U78C C79U the self-cleavage was 0.17.
In the case of G10C U25G U41G C62U U66C, the self-cleavage is reported as 0.14.
With G10A C29U U51A U54C the self-cleavage was 0.06.
In the case of G10A G19C A21G U72C A75G U78A, the self-cleavage is reported as 0.05.
Variant G10A C12U U31C U67C has a self-cleavage of 0.06.
With G10A C23A U26C U80C the self-cleavage was 0.26.
In the case of G10C G42A U78A, the self-cleavage is reported as 0.16.
In the case of G10C A15G C29U G52C U54A U69A, the self-cleavage is reported as 0.05.
Work on G10C U51C U72C yielded a self-cleavage of 0.25.
G10C C23U U43C U69C gave a self-cleavage of 0.11.
Variant G10A C37U G61A A64U has a self-cleavage of 0.05.
With G10U C37A C40U the self-cleavage was 0.26.
In the case of G10C A20G U54C, the self-cleavage is reported as 0.07.
Work on G10U C12A U48A U60A U80G yielded a self-cleavage of 0.03.
G10U A18G U49C A56U A64G A65G gave a self-cleavage of 0.13.
G10U A47G A56C showed a self-cleavage of 0.12.
In the case of G10A C44U U54C A77G U78A, the self-cleavage is reported as 0.04.
In the case of G10A A45G U66C U69C, the self-cleavage is reported as 0.19.
In the case of G10A U25C U67A, the self-cleavage is reported as 0.2.
With G10C A20G U31G U54C the self-cleavage was 0.18.
Work on G10A U25A U48C U80C yielded a self-cleavage of 0.06.
In the case of G10A G36A A45G A64G, the self-cleavage is reported as 0.04.
G10U U31A U49C U67A C79A gave a self-cleavage of 0.1.
With G10A C62G A77G the self-cleavage was 0.05.
G10A A64U U72C gave a self-cleavage of 0.2.
Work on G10C A20C U51A U78C yielded a self-cleavage of 0.19.
Variant G10A C17G U66C has a self-cleavage of 0.2.
Variant G10A C14A U60A has a self-cleavage of 0.18.
For G10C A13G U25C C38U A57G U80C, the self-cleavage was 0.06.
G10C C62U U78A gave a self-cleavage of 0.13.
For G10A U49G U72C, the self-cleavage was 0.06.
For G10A G16A U25A G33A U58C, the self-cleavage was 0.05.
In the case of G10A U25A A56G U74A U78C, the self-cleavage is reported as 0.21.
Variant G10A U26C U31C U41C A45U U74A has a self-cleavage of 0.03.
For G10C A18U U43C, the self-cleavage was 0.14.
In the case of G10A U26A U41C A47G G73A, the self-cleavage is reported as 0.72.
With G10A A35U G52A the self-cleavage was 0.1.
In the case of G10A C23G G46A, the self-cleavage is reported as 0.04.
In the case of G10A U25C U31A G53C C71U, the self-cleavage is reported as 0.05.
Variant G10C A21G U51A U60C U72C has a self-cleavage of 0.08.
G10U A18G U54A A77C showed a self-cleavage of 0.06.
Variant G10A U54C A64U has a self-cleavage of 0.24.
Variant G10C A18U U48C has a self-cleavage of 0.03.
With G10A U26C U74A the self-cleavage was 0.06.
With G10U C11G A15G A18G U31A U76C the self-cleavage was 0.05.
G10A U31C U67A gave a self-cleavage of 0.17.
In the case of G10A U31C U67C, the self-cleavage is reported as 0.14.
Work on G10C U31C A45G G52A C62G U69C U78C yielded a self-cleavage of 0.06.
With G10A U26G U54C the self-cleavage was 0.14.
With G10A C14U C44A A77G U80C the self-cleavage was 0.05.
G10U U31A C59A U66C U78A showed a self-cleavage of 0.06.
Work on G10A U54G G55U U76C yielded a self-cleavage of 0.12.
Work on G10A U43G U49C U69C A77G yielded a self-cleavage of 0.11.
G10C U41C G52A showed a self-cleavage of 0.09.
Variant G10A C11A A13U A21G C44A U48C G52U has a self-cleavage of 0.04.
G10A U26G A28G A47G U48C showed a self-cleavage of 0.24.
G10A U26C A45C A56G A64G U72C showed a self-cleavage of 0.18.
G10A U43A U49C U72A showed a self-cleavage of 0.12.
Work on G10C U26C U41C U54C yielded a self-cleavage of 0.13.
In the case of G10A A35G G52U, the self-cleavage is reported as 0.72.
G10A U25C U31C U72C showed a self-cleavage of 0.07.
Work on G10A U48C U54A U58C yielded a self-cleavage of 0.06.
For G10A U26A A28U U41A U58C U69C, the self-cleavage was 0.07.
With G10A A28G A64U the self-cleavage was 0.12.
In the case of G10A U43C A47G U69C U72C U74A, the self-cleavage is reported as 0.04.
With G10C G19A U26C A35G A45G the self-cleavage was 0.05.
For G10C A28U A47G A56G U76C, the self-cleavage was 0.06.
Work on G10A U41C A64G yielded a self-cleavage of 0.37.
Work on G10A U31C U49A yielded a self-cleavage of 0.06.
G10C A20U U31C U80C showed a self-cleavage of 0.07.
Variant G10U G19U U31A C59A U66C has a self-cleavage of 0.03.
G10A U48C A56G A57U gave a self-cleavage of 0.12.
G10C G16A U69C gave a self-cleavage of 0.12.
For G10A U58C U69C, the self-cleavage was 0.14.
Work on G10A A35C A64G U80C yielded a self-cleavage of 0.12.
Variant G10A G22A U74A has a self-cleavage of 0.25.
In the case of G10A A21G U26C A64U U67A, the self-cleavage is reported as 0.06.
With G10U A64G U76C the self-cleavage was 0.06.
G10C G16U A18G U72C showed a self-cleavage of 0.08.
In the case of G10A A56G A65G U80C, the self-cleavage is reported as 0.17.
Work on G10U A35U U41C U49C G63U yielded a self-cleavage of 0.04.
With G10A A35U U43A the self-cleavage was 0.05.
G10C A15U C50A U54A A56G showed a self-cleavage of 0.18.
Work on G10A U25C U48G U74C C81U yielded a self-cleavage of 0.05.
G10C A15U U25C U26C U58A showed a self-cleavage of 0.11.
G10U U26C U41C A64G U76A U80C showed a self-cleavage of 0.22.
G10A A35U A57G gave a self-cleavage of 0.27.
Work on G10A G16A A20U U72C yielded a self-cleavage of 0.1.
In the case of G10U U31A U41A A57U, the self-cleavage is reported as 0.11.
For G10A G30U C40U U51C, the self-cleavage was 0.05.
For G10U U41C G63U G70A, the self-cleavage was 0.17.
G10C U26C U66C gave a self-cleavage of 0.17.
For G10C A13U U43A A56G, the self-cleavage was 0.11.
G10C U26C C32G A35U U49C U54C G63A showed a self-cleavage of 0.05.
In the case of G10C A15G A18G C29G G33C U41C, the self-cleavage is reported as 0.06.
Work on G10C A28G U54A yielded a self-cleavage of 0.39.
G10A U41C A56C U66A showed a self-cleavage of 0.06.
G10A A21U A65U U66C gave a self-cleavage of 0.04.
Variant G10A U60C A65G U78C has a self-cleavage of 0.12.
For G10A U43C U48C U78C, the self-cleavage was 0.04.
G10A A47C U80C showed a self-cleavage of 0.33.
In the case of G10C U26C A47U A64G A65G, the self-cleavage is reported as 0.06.
Work on G10A U26A U41A U51C yielded a self-cleavage of 0.16.
G10A G52C U76C gave a self-cleavage of 0.24.
Work on G10A G16A C17U U48C U76C yielded a self-cleavage of 0.13.
G10C U26A U54A U60A U74C showed a self-cleavage of 0.09.
For G10U C23G U49C, the self-cleavage was 0.06.
G10U U25C G36C A47G U51A U80C showed a self-cleavage of 0.12.
Work on G10U C14U U31A U51A yielded a self-cleavage of 0.06.
With G10A U49C G52C U69A the self-cleavage was 0.05.
Work on G10A U60A U80C yielded a self-cleavage of 0.06.
G10A A35G A57G showed a self-cleavage of 1.08.
Variant G10A U25C A35G A47G has a self-cleavage of 0.03.
In the case of G10C A20U U43C, the self-cleavage is reported as 0.08.
For G10U C50U A77C, the self-cleavage was 0.18.
For G10C A18G A45G U48C, the self-cleavage was 0.22.
For G10A U48C U60C, the self-cleavage was 0.11.
Variant G10U U25C U66C U76A U80C has a self-cleavage of 0.05.
G10U A13G U54C gave a self-cleavage of 0.06.
G10A U25C A35G U49C U54C A75G showed a self-cleavage of 0.03.
G10U U41C U49A showed a self-cleavage of 0.13.
With G10U A13U A21G G30A U48G C62U the self-cleavage was 0.01.
Variant G10C C23U U69C A75U has a self-cleavage of 0.15.
Variant G10U U25A U49C A56G U58C has a self-cleavage of 0.05.
For G10A A64G U66C, the self-cleavage was 0.17.
Variant G10C U26C U51C A75G has a self-cleavage of 0.12.
In the case of G10C A13U A20G A45U U58C A65G, the self-cleavage is reported as 0.04.
Variant G10A A35U A57G G63C A65G has a self-cleavage of 0.13.
In the case of G10C A20U A28G C34G U41C A64G U76C, the self-cleavage is reported as 0.03.
For G10A U25A U80C, the self-cleavage was 0.21.
Variant G10A A28G U31A A64G has a self-cleavage of 0.05.
Work on G10C A15G A20G G55A yielded a self-cleavage of 0.25.
Work on G10U C17A U72C yielded a self-cleavage of 0.21.
With G10C A45U A65G the self-cleavage was 0.12.
Variant G10A G24A U31G A45U U66C U72G has a self-cleavage of 0.02.
G10A U31G A35G A64U U80A gave a self-cleavage of 0.15.
Variant G10A U25C U72C has a self-cleavage of 0.17.
Variant G10C U31C C62G U69C U78C has a self-cleavage of 0.07.
Variant G10C U43A A45U G53A has a self-cleavage of 0.19.
With G10C U31G U41C A45G U58G U66C the self-cleavage was 0.14.
In the case of G10A U49C A57G U67C U69A U80C, the self-cleavage is reported as 0.13.
Work on G10A U41C U51C yielded a self-cleavage of 0.34.
G10A U41A U51C A65G gave a self-cleavage of 0.16.
Work on G10C A20G U25C yielded a self-cleavage of 0.24.
With G10C A21G U58C U72C the self-cleavage was 0.34.
Work on G10C U58A U72C yielded a self-cleavage of 0.17.
In the case of G10C A35G U41G A45G, the self-cleavage is reported as 0.14.
In the case of G10U G30C A45C G70A U80C, the self-cleavage is reported as 0.04.
